According to article PMC6919601, “Identification of Plasmodium dipeptidyl aminopeptidase allosteric inhibitors by high throughput screening” (PLoS ONE, 2019):
The campaign covered roughly 110,000 compounds. About 230 (0.21%) showed an effect of 50% or more. Some of the results follow.

Target: DPAP1 (Plasmodium falciparum, UniProt Q8IIJ9)
Experiment: primary screen, percent inhibition; read by cleavage of a fluorogenic dipeptide substrate; higher = more effect of the substance
Set-up: species or system P. falciparum D10 trophozoite lysates; single well
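Also: 30 min substrate incubation versus DMSO and 10 µM JCP410 controls.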

Sequence of DPAP1 (Q8IIJ9 whole entry, looked up): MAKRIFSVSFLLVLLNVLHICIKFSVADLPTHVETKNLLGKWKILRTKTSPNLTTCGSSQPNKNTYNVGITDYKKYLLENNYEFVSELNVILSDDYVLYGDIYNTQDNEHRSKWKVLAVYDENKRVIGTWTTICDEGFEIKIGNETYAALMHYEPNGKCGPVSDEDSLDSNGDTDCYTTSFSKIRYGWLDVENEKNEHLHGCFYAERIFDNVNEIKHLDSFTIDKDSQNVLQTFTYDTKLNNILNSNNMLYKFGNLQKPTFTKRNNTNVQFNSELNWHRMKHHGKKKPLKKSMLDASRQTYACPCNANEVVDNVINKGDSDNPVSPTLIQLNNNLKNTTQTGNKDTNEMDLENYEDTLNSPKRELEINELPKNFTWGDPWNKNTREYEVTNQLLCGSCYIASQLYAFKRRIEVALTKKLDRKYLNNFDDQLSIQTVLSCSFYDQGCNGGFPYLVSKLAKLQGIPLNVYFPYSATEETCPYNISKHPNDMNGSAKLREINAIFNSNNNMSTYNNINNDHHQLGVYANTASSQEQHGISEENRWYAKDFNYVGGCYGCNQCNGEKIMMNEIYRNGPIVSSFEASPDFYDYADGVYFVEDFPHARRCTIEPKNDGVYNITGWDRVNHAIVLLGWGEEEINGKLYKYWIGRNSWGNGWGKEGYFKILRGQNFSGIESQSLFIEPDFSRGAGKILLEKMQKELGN

Going from `O=C(Cn1cnc2sc3c(c2c1=O)CCCC3)NCc1ccccc1Cl` to `COc1ccccc1CNC(=O)Cn1ncn2nc(-c3cccs3)cc2c1=O`, the “% Inhibition @ 10 uM” value rises from -2.87% to 0.623%.

Going from `Cc1c2c(n(C)c1-c1ccccc1)C(c1ccccc1)Oc1ccccc1-2` (stereo not drawn) to `N#CC1=C(N)Oc2[nH]nc(-c3ccccc3)c2C1c1ccccc1` (stereo not drawn), the “% Inhibition @ 10 uM” value falls from 5.48% to -0.413%.

Going from `O=C(O)/C=C/C(=O)NCc1ccc(Cl)c(Cl)c1` to `Cc1onc(-c2c(Cl)cccc2Cl)c1C(=O)NCc1cccnc1`, the “% Inhibition @ 10 uM” value rises from -0.256% to 8%.

Compared with `CCCSc1nnc(-c2ccccc2Cl)o1`, `CCN(CC)CCN(CC)Cc1ccccc1Cl` is higher in “% Inhibition @ 10 uM” value: 2.22% for the first, 2.91% for the second.

Compared with `CCOc1cc(CN2CCN(c3ccc(Cl)cc3)CC2)ccc1O`, `Clc1ccc(N2CCN(Cc3ccc(Br)cc3)CC2)cc1` is higher in “% Inhibition @ 10 uM” value: -4.35% for the first, -3.65% for the second.

Going from `OCC1OC(Oc2ccc(Cl)cc2)C(O)C(O)C1O` (stereo not drawn) to `CC(=O)NC(C)(C)COc1ccc(Cl)cc1`, the “% Inhibition @ 10 uM” value rises from -2.18% to 1.98%.

First: CCOc1ccc(OCc2ccc(C(=O)N3CCCC(C)C3)cc2)cc1 (stereo not drawn)
Second: CN1CCN(C(=O)c2ccc(CNS(=O)(=O)c3ccc(Br)cc3)cc2)CC1
The “% Inhibition @ 10 uM” value of the first is higher: -1.33% for the first, -5.22% for the second.

Compared with `CC(C)NC(=O)COc1ccc(-c2ccc(C#N)cc2)cc1`, `CCCc1ccc(OCC(=O)Nc2ccc(C)c([N+](=O)[O-])c2)cc1` is lower in “% Inhibition @ 10 uM” value: 0.907% for the first, -2.66% for the second.

Compared with `Cc1ccc(C2C=C(c3ccc(Cl)cc3OC(F)F)Nc3ncnn32)cc1` (stereo not drawn), `Cc1ccc(C2C=C(c3ccc(Cl)cc3)Nc3ncnn32)cc1` (stereo not drawn) is lower in “% Inhibition @ 10 uM” value: 3.45% for the first, -9.11% for the second.

Going from `Cc1ccc2nc(CC(C)(C)CC(=O)O)c[n+]([O-])c2c1` to `COc1ccc(C)cc1N(CC(=O)NC(C)(C)C)S(=O)(=O)c1ccc(C)cc1`, the “% Inhibition @ 10 uM” value falls from -1.05% to -3.78%.

Going from `C#CCn1c(-c2ccco2)nc2ccccc21` to `Cn1c(-c2cccs2)c(C=O)c2ccccc21`, the “% Inhibition @ 10 uM” value falls from -2.28% to -5.37%.

Compared with `N=C(NC(=O)c1cccc(Cl)c1)Nc1nc2ccccc2s1`, `O=C(Nc1nc2ccc(F)cc2s1)c1nc(S(=O)(=O)Cc2ccc(F)cc2)ncc1Cl` is lower in “% Inhibition @ 10 uM” value: 1.91% for the first, -4.54% for the second.

First: CC1=C(C(=O)NCCN(C)C)C2(CCCCCC2)OC1=O
Second: CCS(=O)(=O)N1CCC2(CC1)OC(=O)C(C)=C2C(=O)NCCc1ccc(C)cc1
The “% Inhibition @ 10 uM” value of the first is higher: -1.07% for the first, -6.67% for the second.

First: O=C(NCCN1CCCC1)c1cc(-c2ccncc2)nc2ccc(S(=O)(=O)N3CCOCC3)cc12
Second: O=S(=O)(c1ccc(-c2csc(Nc3cccc(C(F)(F)F)c3)n2)cc1)N1CCCC1
The “% Inhibition @ 10 uM” value of the first is higher: -0.971% for the first, -2.21% for the second.

Compared with `Cc1cc(N2CCC(O)CC2)nc2cc(Cl)ccc12`, `COc1ccc(CN2CCCC(O)C2)c(C)c1C` (stereo not drawn) is higher in “% Inhibition @ 10 uM” value: -5.48% for the first, -1.07% for the second.

Compared with `COc1ccc(-c2ccc(C#N)c(SCC(=O)Nc3ccccc3F)n2)cc1OC`, `COc1ccc(CCn2c(SCC(=O)Nc3cc(C)[nH]n3)nc3ncccc3c2=O)cc1OC` is lower in “% Inhibition @ 10 uM” value: 4.28% for the first, 3.32% for the second.

Going from `COc1ccc(NC2=NC(=O)C(Cc3ccccc3)C(=O)N2)cc1` (stereo not drawn) to `O=C(O)CCCC(=O)Nc1ccc(Oc2ccc3ccccc3c2)cc1`, the “% Inhibition @ 10 uM” value rises from -3.76% to 2.44%.

Compared with `O=C(Cc1ccccc1)NCCc1nc2ccccc2n1Cc1ccccc1F`, `CC(C)OCCCNCc1c(C(=O)O)n(Cc2ccccc2)c2ccccc12` is higher in “% Inhibition @ 10 uM” value: -3.48% for the first, -1.44% for the second.

Going from `COc1cc(-c2nnc3sc(COc4ccc(C(C)(C)C)cc4)nn23)cc(OC)c1OC` to `CCOc1ccc(C2=CC(c3cc(OC)c(OC)c(OC)c3)n3ncnc3N2)cc1` (stereo not drawn), the “% Inhibition @ 10 uM” value falls from 8.94% to -5.19%.

First: C(#CCN1CCN(CC#CCOCc2ccccc2)CC1)COCc1ccccc1
Second: OC1(c2ccc(Br)cc2)CCN(C2CCN(CCc3ccccc3)CC2)CC1
The “% Inhibition @ 10 uM” value of the first is higher: 3.43% for the first, -0.0908% for the second.

Going from `CCOC(=O)/C(C#N)=C/c1c(Oc2ccc(Br)cc2)nc2ccccn2c1=O` to `CN1C(=O)C(O)(CC(=O)c2ccc(Br)cc2)c2ccccc21` (stereo not drawn), the “% Inhibition @ 10 uM” value rises from -6.23% to 0.83%.

First: COc1cc(C(=O)NCc2ccccn2)cc(OC)c1OC
Second: COc1cc(CN(C(=S)NCC(=O)NCc2cccs2)C2CCCC2)cc(OC)c1OC
The “% Inhibition @ 10 uM” value of the first is lower: -21.4% for the first, -0.406% for the second.

First: Cc1ccc(C(C)C)c(OCCN2C(=O)c3ccccc3C2=O)c1
Second: Cc1cc(NS(=O)(=O)c2ccc(N3C(=O)c4ccccc4C3=O)cc2)no1
The “% Inhibition @ 10 uM” value of the first is lower: -3.04% for the first, -2.74% for the second.

First: CCOC(=O)N1CCN(C2=Cc3ccccc3Sc3ccccc32)CC1
Second: COc1ccccc1N1CCN(Cc2nc3ccccc3c(=O)n2-c2ccc(F)cc2)CC1
The “% Inhibition @ 10 uM” value of the first is higher: 13.7% for the first, 0.245% for the second.

Compared with `CC(C)C[C@H](NC(=O)OCc1ccccc1)c1nc(C(=O)NNC(=O)[C@H](Cc2ccc3ccccc3c2)NC(=O)OCc2ccccc2)cs1`, `CC(C)CN1C(=O)c2ccccc2C(C(=O)N(CCN(C)C)Cc2ccccc2)C1c1cccs1` (stereo not drawn) is higher in “% Inhibition @ 10 uM” value: -5.64% for the first, -4.37% for the second.

Compared with `Cc1cc(NCCO)nc2ccccc12`, `O=C(NCc1ccccc1)c1cc2nc(C3CC3)cc(C(F)(F)F)n2n1` is higher in “% Inhibition @ 10 uM” value: -1.96% for the first, 3.35% for the second.

Going from `CCC1CCCCN1C1=C(Cl)C(=O)N(c2ccc(OC)cc2)C1=O` (stereo not drawn) to `COc1c(S(=O)(=O)N2CCC(C(N)=O)CC2)ccc(Cl)c1Cl`, the “% Inhibition @ 10 uM” value rises from -0.996% to 3.53%.

First: COCCOC(=O)C1=C(N)Oc2c(oc(CO)cc2=O)C1c1c(F)cccc1Cl (stereo not drawn)
Second: N#CC1=C(N)Oc2[nH]nc(-c3cccs3)c2C1c1c(F)cccc1Cl (stereo not drawn)
The “% Inhibition @ 10 uM” value of the first is lower: -5.36% for the first, -4.43% for the second.

Compared with `Cc1cc(C)cc(-n2c(C)cc(/C=C3\SC(=O)NC3=O)c2C)c1`, `COc1cc(/C=C2\SC(=O)N(CC(=O)Nc3ccc(C)cc3)C2=O)cc(Br)c1O` is lower in “% Inhibition @ 10 uM” value: 1.67% for the first, -2.11% for the second.

Compared with `Cc1ccc(N2C(=O)c3cccc4c(Cl)ccc2c34)cc1`, `Cc1ccc(Cl)cc1NC(=O)C1CC(=O)N(c2ccc(Cl)cc2)C1` (stereo not drawn) is lower in “% Inhibition @ 10 uM” value: 1.13% for the first, -6.67% for the second.

Going from `Cn1c(=O)[nH]c(=O)c2c1nc(N1CCOCC1)n2Cc1ccc(Cl)cc1` to `CN1CCN(CC(O)COc2ccc(Cl)cc2)CC1` (stereo not drawn), the “% Inhibition @ 10 uM” value falls from 2.92% to -0.711%.

Going from `CCC(C)(C)C1CCc2c(sc(NC(=O)C3CC=CCC3C(=O)O)c2C(N)=O)C1` (stereo not drawn) to `Cc1ccccc1C(=O)Nc1sc(C)c(C)c1C(N)=O`, the “% Inhibition @ 10 uM” value falls from 1.59% to -0.28%.

First: CCOC(=O)NC(CC(=O)O)c1ccc(F)cc1 (stereo not drawn)
Second: CC(C)C[C@H](NC(=O)c1cccs1)C(=O)NCC#N
The “% Inhibition @ 10 uM” value of the first is higher: 0.279% for the first, 0.174% for the second.

Compared with `CC(C)CCNC(=O)CN1CC(=O)N2CCCC2C1=O` (stereo not drawn), `CC(C)c1ccc(OCC(=O)NCCN2CCOCC2)c(Br)c1` is higher in “% Inhibition @ 10 uM” value: -4.46% for the first, 3.04% for the second.

First: CSc1ccc(CN2CCN(c3ccccn3)CC2)cc1
Second: O=C(NC1CCN(Cc2ccccc2)CC1)c1ccc(F)cc1
The “% Inhibition @ 10 uM” value of the first is lower: -4.61% for the first, -1.96% for the second.

Compared with `Cc1nn(CC(=O)NCCCOC(C)C)c(=O)c2cc3cc(F)ccc3n12`, `COCCCNC(=O)c1cc2c(=O)n3cccc(C)c3nc2n(C2CCCCC2)c1=N` is lower in “% Inhibition @ 10 uM” value: 3.09% for the first, -9.1% for the second.

Compared with `COc1ccc(-c2noc(COc3ccc(C)cc3Br)n2)cc1OC`, `COc1ccc(CNCc2ccc(C)cc2)c(OC)c1` is lower in “% Inhibition @ 10 uM” value: 3.66% for the first, -1.07% for the second.

First: CCOc1ccc2ncc(S(=O)(=O)c3ccc(C)c(C)c3)c(N3CCN(CC)CC3)c2c1
Second: CCOc1ccccc1NC(=O)CN(c1ccccc1C)S(C)(=O)=O
The “% Inhibition @ 10 uM” value of the first is lower: -8.2% for the first, 1.52% for the second.

First: O=C(O)CSc1cc(NS(=O)(=O)c2ccccc2)c2ccccc2c1O
Second: O=C(O)C(c1c(O)oc2ccccc2c1=O)c1c(O)oc2ccccc2c1=O
The “% Inhibition @ 10 uM” value of the first is higher: 4% for the first, 3.25% for the second.

Going from `COc1ccc(O)c(C2CC(c3c(O)cc(C)oc3=O)=Nc3cc(C(F)(F)F)ccc3S2)c1` (stereo not drawn) to `COc1ccc(/C=C2\SC(Nc3ccc(F)cc3)=NC2=O)c(OC)c1`, the “% Inhibition @ 10 uM” value rises from 1.42% to 5.73%.

Compared with `COc1ccc2cc(-c3nc(-c4ccc(Cl)cc4)no3)c(=O)oc2c1`, `Cc1ccc(C(=O)Nc2nc(-c3nnn(-c4ccc(C)cc4C)c3C)ns2)cc1` is higher in “% Inhibition @ 10 uM” value: -1.68% for the first, 2.62% for the second.

Going from `CCN1C(=O)CC(c2ccncc2)=Nc2ccccc21` to `CC(=O)N1C(=O)C2(C(C#N)=C(N)Oc3[nH]nc(-c4ccc(F)cc4)c32)c2ccccc21` (stereo not drawn), the “% Inhibition @ 10 uM” value rises from -5% to -3.77%.

First: CCOC(=O)N1CCC(NC(=O)c2nc(-c3cccnc3)no2)CC1
Second: Cc1cccc(NC(=O)C2CCN(S(=O)(=O)c3c(C)nn(C)c3C)CC2)n1
The “% Inhibition @ 10 uM” value of the first is lower: 0.658% for the first, 3.81% for the second.

Going from `c1ccc(-c2csc(C3CCOCC3)n2)cc1` to `Cc1nc2cc(-c3ccccc3)nn2c(C)c1CCC(=O)NCCC1=CCCCC1`, the “% Inhibition @ 10 uM” value rises from 1.54% to 2.93%.

Compared with `CN(C)S(=O)(=O)N1CCC(C(=O)O)(c2ccccc2)CC1`, `CNC(=O)c1ccc2c(c1SC)C(=O)c1ccccc1C2=O` is higher in “% Inhibition @ 10 uM” value: -6.28% for the first, 2.18% for the second.

First: O=C(O)C1CCCCC1C(=O)NCCCn1ccnc1 (stereo not drawn)
Second: COCCCNC(=O)c1csc2c1CCCC2
The “% Inhibition @ 10 uM” value of the first is higher: 4.01% for the first, -1.44% for the second.

First: Cc1ccc(S(=O)(=O)N(CC(=O)Nc2cccnc2)c2cc(Cl)cc(Cl)c2)cc1
Second: COc1cc(OC)c(NC(C)=O)cc1Cl
The “% Inhibition @ 10 uM” value of the first is lower: -7.28% for the first, -0.268% for the second.

Going from `OC(COc1ccc(OCC(O)CN2CCCCC2)cc1)CN1CCCCC1` (stereo not drawn) to `CC1(C)CC(O)=C/C(=N/Cc2ccc(C(=O)O)cc2)C1`, the “% Inhibition @ 10 uM” value falls from 3.53% to 0.317%.

Compared with `CCOc1cc(/C=N/n2cnnc2)c(Br)cc1O`, `CCCCCCSc1nc(N)c2c(C)c(C)sc2n1` is lower in “% Inhibition @ 10 uM” value: 0.611% for the first, -1.26% for the second.

For `CC1(C[C@H](NC(=O)OC(C)(C)C)C(=O)NC2(C#N)CCS(=O)(=O)CC2)CCCC1`, the “% Inhibition @ 10 uM” value was 3.1%.
